Laboratory results taken from article PMC4336329 (PLoS ONE, 2015).
Among all 310,000 compounds or so, about 14,000 (4.5%) showed an effect of 50% or more. The effect is printed as a negative number. The list shows a part of the results.

Each compound was assayed against human ether-à-go-go-related gene (hERG) potassium channel (human, UniProt Q12809) (assay: primary screen, population patch clamp on CHO cells stably expressing hERG).
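Further: peak tail current of the secondary pulse compared with the same well before compound.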

human ether-à-go-go-related gene (hERG) potassium channel, sequence (Q12809 whole entry, looked up): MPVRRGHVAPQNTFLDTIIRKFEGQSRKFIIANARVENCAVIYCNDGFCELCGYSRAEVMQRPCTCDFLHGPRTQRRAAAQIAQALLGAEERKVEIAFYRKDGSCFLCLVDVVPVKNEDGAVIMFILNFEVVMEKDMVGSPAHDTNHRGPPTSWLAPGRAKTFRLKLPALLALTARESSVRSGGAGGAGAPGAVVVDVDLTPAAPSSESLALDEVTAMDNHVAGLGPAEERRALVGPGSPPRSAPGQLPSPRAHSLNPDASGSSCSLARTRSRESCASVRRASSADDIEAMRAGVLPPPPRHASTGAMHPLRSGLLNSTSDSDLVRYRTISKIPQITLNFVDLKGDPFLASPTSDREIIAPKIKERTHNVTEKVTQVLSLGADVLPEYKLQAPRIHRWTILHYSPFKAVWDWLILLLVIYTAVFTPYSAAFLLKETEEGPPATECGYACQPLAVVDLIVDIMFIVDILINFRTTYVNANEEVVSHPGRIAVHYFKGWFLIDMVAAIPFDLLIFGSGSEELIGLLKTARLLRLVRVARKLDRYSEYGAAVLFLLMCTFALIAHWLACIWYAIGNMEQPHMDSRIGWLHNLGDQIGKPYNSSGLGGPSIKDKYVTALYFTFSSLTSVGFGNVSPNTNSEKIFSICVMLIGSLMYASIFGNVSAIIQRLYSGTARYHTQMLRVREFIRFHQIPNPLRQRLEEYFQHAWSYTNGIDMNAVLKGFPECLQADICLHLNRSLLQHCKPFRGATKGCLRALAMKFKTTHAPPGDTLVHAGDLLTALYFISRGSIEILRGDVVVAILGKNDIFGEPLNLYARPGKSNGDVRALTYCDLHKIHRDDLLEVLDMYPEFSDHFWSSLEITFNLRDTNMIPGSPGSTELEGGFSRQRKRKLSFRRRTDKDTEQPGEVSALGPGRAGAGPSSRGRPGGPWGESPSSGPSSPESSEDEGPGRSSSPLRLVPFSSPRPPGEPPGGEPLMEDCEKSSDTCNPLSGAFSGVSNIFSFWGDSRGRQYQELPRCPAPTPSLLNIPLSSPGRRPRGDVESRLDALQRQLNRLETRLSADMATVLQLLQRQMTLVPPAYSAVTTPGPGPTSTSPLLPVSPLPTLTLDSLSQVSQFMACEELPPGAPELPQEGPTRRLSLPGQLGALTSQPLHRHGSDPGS

SMILES	hERG current change (%, negative = inhibition) at 10uM
CCn1c(=O)c2c(cnn2C)c2ccccc21	2.58%
COc1ccc(CN2C(=O)CCC2(C)C(=O)NCc2cccnc2)c(OC)c1 (stereo not drawn)	-15.4%
O=S1(=O)CC(N2CCOCC2)c2ccccc21 (stereo not drawn)	-3.12%
O=C(CCC(=O)Nc1ccccc1Cl)NNC(=S)Nc1ccccc1C(F)(F)F	21.8%
COc1ccc(CCNC(=O)c2sc(=S)n(C)c2N)cc1	15.1%
COc1ccc(NC(=O)[C@H](Cc2c[nH]c3ccccc23)NC(=O)[C@@H]2Cc3ccccc3CN2)cc1	-36.8%
COC(=O)Cc1c(C)nc2nc(-c3ccc(OC)cc3)[nH]n2c1=O	-8.18%
COC(=O)c1ccc2c(=O)n(CCCCCC(=O)NCc3ccccn3)c(=O)[nH]c2c1	2.27%
Cc1cc2nnc(SCC(=O)N3CCN(c4ccccc4)CC3)n2c(N)n1	-11.5%
COC(=O)C1=C(c2ccc(S(C)(=O)=O)cc2)C[C@@H]2CC[C@H]1N2C(=O)N1CCCC1	2.35%
CNCCc1c[nH]c2ccc(O)cc12.O=C(O)C(=O)O	17.7%
COC(=O)c1[nH]c2cccc(OC)c2c1NC(=O)CCN1CC(C)CC(C)C1 (stereo not drawn)	-21.1%
OC(COc1ccc(Cl)cc1)CSc1ccccn1 (stereo not drawn)	9.61%
O=C(C1CCN(C2CCN(CC3CC=CCC3)CC2)CC1)N1CCOCC1 (stereo not drawn)	-4.14%
Cc1ccccc1NS(=O)(=O)c1ccc(C(=O)N2CCC2)cc1	8.65%
Cc1c(Cl)c(C(F)(F)F)nn1CC(=O)NCc1ccccc1	27.7%
CC(C)CC(=O)CN1C(=O)C2(OCCO2)c2ccccc21	13.2%
O=C(Nc1ccc(Cl)c(Cl)c1)N(CCCN1CCOCC1)Cc1cccs1	-78%
CCOC(=O)C1CCCN(C(=O)c2cc3c(=O)n4ccccc4nc3s2)C1 (stereo not drawn)	-3.69%
CCC(/C=N/NC(=O)C1COc2ccccc2O1)CC (stereo not drawn)	1.12%
Cc1csc2nc(CNS(=O)(=O)c3ccc4c(c3)OCCO4)cn12	1.54%
CCC(C)[C@H](NC(=O)NCc1cccc(OC)c1)C(=O)OC (stereo partly drawn)	-1.03%

SMILES	hERG current change (%, negative = inhibition) at 10uM
OC1CCN(c2ncnc3c2nnn3Cc2c(F)cccc2Cl)CC1	-8.17%
CC(=O)c1nn(-c2ccc(C)cc2)cc1C(=O)c1cccc(Br)c1	8.58%
COc1ccc(C(=O)O/N=C(\N)Cc2ccc(Cl)cc2)cc1OC	-15.7%
CN(CCCC(=O)Nc1ccc(OC(F)F)cc1)S(=O)(=O)c1ccc(F)cc1	-71.3%
Cn1cc(C(=O)c2ccccc2C(=O)O)cc1C(=O)C(Cl)(Cl)Cl	15.3%
COC(=O)c1[nH]c2ccccc2c1NC(=O)/C=C/c1ccc2c(c1)OCO2	13.8%
c1ccc(C2[C@H]3CN(CC4CCCCC4)[C@H](c4ccccc4)C34CC2(c2ccccc2)C4)cc1 (stereo partly drawn)	8.82%
COc1cccc(NC(=O)c2ccccc2N2C(=O)C3C4C=CC(C5CC45)C3C2=O)c1 (stereo not drawn)	3.88%
CC#CCCC(=O)N1C=Cc2ccccc2C1C#N (stereo not drawn)	-12.3%
COc1ccc(C(=O)N2CCC(=O)N(C(CO)Cc3ccccc3)CC2)cc1 (stereo not drawn)	-5.81%
CC1(c2ccc3c(c2)OCCO3)NC(=O)N(CC(=O)c2ccc[nH]2)C1=O (stereo not drawn)	5.98%
O=C(/C=C/c1ccc(Br)cc1)N1CCN(Cc2ccccc2)CC1	-16.9%
Cn1cccc1CNC(=S)Nc1cc(F)cc(F)c1	6.41%
O=C(CN(C(=O)Cn1nnc(-c2cccs2)n1)c1ccc2c(c1)OCCO2)NCC1CCCO1 (stereo not drawn)	-14.7%
COc1cccc(CN(C)C(=O)C23CC4CC(CC(NC(C)=O)(C4)C2)C3)c1OC	-2.28%
Nc1nn(-c2ccccc2)c(N)c1N=Nc1cccc(F)c1	-10.4%
COC(=O)c1sccc1NC(=O)c1ccc(C(C)C)cc1	16.3%
Cc1csc(SCC(=O)Nc2ccc3c(c2)OCCO3)n1	14.7%
Cc1cccc2nc(-c3cccnc3)c(Nc3ccccc3)n12	-43.1%
CCOc1ccccc1NC(=O)c1ccc(NC(=O)c2ccco2)cc1	-4.66%
CCCOc1ccc(-c2c(C(=O)N/N=C/c3ccsc3)nnn2-c2nonc2N)cc1	-15.7%
O=C(NC(=S)Nc1cc([N+](=O)[O-])ccc1O)C1CC1	2.86%

SMILES	hERG current change (%, negative = inhibition) at 10uM
CCCOC(=O)c1c(NC(=O)/C=C/c2cnn(C)c2C)sc(C(=O)OC)c1C	11.8%
CCN1C(=O)c2cccc3c(S(=O)(=O)Nc4ccc(OC)cc4OC)ccc1c23	-18.8%
COc1ccccc1-n1ccnc(SCC(=O)NCCc2ccccc2)c1=O	13.9%
Cc1ccc(N2CC(C(=O)NCc3n[nH]c(=O)c4ccccc34)CC2=O)cc1 (stereo not drawn)	-23.8%
Cc1ccccc1-n1c(C)nc2ccccc2c1=O	2.01%
O=c1[nH]c(Cc2ccc(Cl)cc2)nc2ccccc12	20.3%
COc1ccc(CN(C)S(=O)(=O)c2c(C)noc2C)cc1OC	2.92%
COc1cccc(NC(=O)c2nn(C)c(C(=O)Nc3cccc(OC)c3)c2[N+](=O)[O-])c1	-9.91%
CCc1cc2cccc(C)c2nc1SCC(=O)Nc1nonc1C	13.6%
O=[N+]([O-])c1ccc(Cl)cc1NCCCN1CCOCC1	0.725%
COc1ccc(-c2noc3c2-c2nc(C4CCCCC4)sc2CC3)cc1	7.61%
COc1ccc(-c2nc3n(n2)C(c2cccnc2)C(C(N)=O)=C(C)N3)cc1 (stereo not drawn)	-17.3%
COc1ccc(-c2oc3ncnc(NCCN4CCOCC4)c3c2-c2ccc(OC)cc2)cc1	2.75%
O=C(NC1CCCCCCC1)c1ccc(CNc2c(N3CCOCC3)c(=O)c2=O)cc1	-0.985%
O=C(COc1cc(F)ccc1[N+](=O)[O-])Nc1ccc(N2CCOCC2)cc1	7.65%
CCC(C)(C)NC(=O)C(c1cccc(OC)c1)N(C(=O)c1ccn[nH]1)c1cccc(OC)c1 (stereo not drawn)	0.649%
O=C(CSc1nnc(COc2ccc(Cl)cc2)o1)N1CCOCC1	-10.5%
C=CCOc1ccc(CNC(C)(C)CO)cc1OC.Cl	1.65%
COCCn1c(=N)c(C(=O)NCCc2ccccc2)cc2c(=O)n3cccc(C)c3nc21	-82.9%
CC(=O)c1c(C)[nH]c(C(=O)N2CC(C)CC(C)C2)c1C (stereo not drawn)	8.66%
COc1ccccc1CN1CC(C(=O)NCCN(C)CCc2ccccc2)CCC1=O (stereo not drawn)	-65.7%
COC(=O)c1[nH]c2ccc(Cl)cc2c1NC(=O)CN1CCc2cc(OC)c(OC)cc2C1	5.23%

SMILES	hERG current change (%, negative = inhibition) at 10uM
CCCCOP(=O)(OCCCC)C(O)c1ccc(Br)cc1 (stereo not drawn)	2.27%
O=C(CSc1ccc([N+](=O)[O-])cn1)Nc1ccc(N2CCOCC2)cc1	9.17%
COc1ccc(N=Nc2cc(C)ccc2O)cc1	0.723%
CCSc1nnc(CNC(=O)C23CC4CC(CC(C4)C2)C3)n1C1CCCCC1	10.6%
CCC1=NN(C(=O)c2ccc([N+](=O)[O-])cc2)C(O)(c2ccccc2)C1 (stereo not drawn)	3.73%
COc1ccc(C(=O)NCCN2CCN(C(=O)c3ccc(OC)c(OC)c3)CC2)cc1OC	14.5%
CN(C)c1ccc(C(=O)c2ccc(N(C)C)c(N)c2)cc1N	-3.79%
CCn1cc(CN2CCN(CC(C)(C)C)C(CCO)C2)c2ccccc21 (stereo not drawn)	-5.77%
Cc1ccc(C(=O)/C=C/Nc2ccccc2C(N)=O)o1	-13.4%
CC1CC(=O)NN=C1c1ccc(N(C)C)c([N+](=O)[O-])c1 (stereo not drawn)	-4.94%
O=C(NCc1ccccc1)C(c1ccncc1)N(C(=O)c1csnn1)c1cccc(F)c1 (stereo not drawn)	-3.64%
Cc1ccsc1C1CC(=O)NC2=C1C(=O)CC(C)(C)C2 (stereo not drawn)	6.43%
Cc1cc(-c2nnc(SCC(=O)Nc3nc(-c4ccc(Cl)cc4)cs3)o2)no1	14.7%
COc1cccc(NC(=O)[C@@H]2CCCN2C(=O)C2CCN(S(=O)(=O)c3ccc(C)cc3)CC2)c1	-25.2%
O=C(CCNS(=O)(=O)c1ccc2[nH]c(=O)oc2c1)Nc1ccccc1	11.7%
O=C(C1CCN(S(=O)(=O)c2ccc(Br)cc2)CC1)N1CCOCC1	-5.07%
Cc1ccc(C(=O)Nc2cccc(N(C)S(C)(=O)=O)c2)cc1S(=O)(=O)Nc1ccccc1	-2.07%
CCSC1=NSC2=NC(=O)/C(=C\c3coc4ccccc4c3=O)C(=N)N12	1.4%
Cc1ccccc1C(=O)NCC(=O)O	20.6%
O=C(c1ccc2ccccc2c1)N1CCc2ccccc21	3.51%
CC(C)(C)n1nnnc1C(c1cccnc1)N1CCN(c2cccc(C(F)(F)F)c2)CC1.Cl (stereo not drawn)	-53.3%
